Reference: article PMC4466309
Results are given in words; binding and its absence hold for the method and conditions named. Binding seen in cells or lysates may run through a third protein. Some results given as binding are weak or reduced against the parent protein; the word gives no strength. Tags and fused reporters may be left off the sequences shown. Each block holds one binder with its values, some of them ahead of it.

Experiments:
Flag-HeyL = biological target: T1, Flag-HeyL (UniProt Q9DBX7); assay: co-IP; Dox-induced HEK293 lines (FS-Hey1, FS-Hey2, Flag-HeyL, FS-Hes1) transfected with eGFP constructs; anti-Flag M2 affinity gel, 4°C overnight; 20 mM Tris pH 7.8, 150 mM NaCl, 10% glycerol, 0.3% Triton-X100; Western blot with anti-Flag and anti-GFP
T1 sequence: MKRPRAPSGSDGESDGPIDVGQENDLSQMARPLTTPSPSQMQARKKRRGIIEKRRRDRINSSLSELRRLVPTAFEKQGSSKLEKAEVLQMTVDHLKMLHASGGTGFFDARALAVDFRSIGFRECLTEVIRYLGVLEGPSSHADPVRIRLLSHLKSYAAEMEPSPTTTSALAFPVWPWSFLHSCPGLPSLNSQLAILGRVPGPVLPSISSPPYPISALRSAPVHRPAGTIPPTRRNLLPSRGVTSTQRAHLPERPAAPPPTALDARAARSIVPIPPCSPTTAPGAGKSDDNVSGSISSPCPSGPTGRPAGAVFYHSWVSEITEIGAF

Flag-Strep (FS)-Hes1 = biological target: T2, Flag-Strep (FS)-Hes1 (UniProt P35428); assay: as above
T2 sequence: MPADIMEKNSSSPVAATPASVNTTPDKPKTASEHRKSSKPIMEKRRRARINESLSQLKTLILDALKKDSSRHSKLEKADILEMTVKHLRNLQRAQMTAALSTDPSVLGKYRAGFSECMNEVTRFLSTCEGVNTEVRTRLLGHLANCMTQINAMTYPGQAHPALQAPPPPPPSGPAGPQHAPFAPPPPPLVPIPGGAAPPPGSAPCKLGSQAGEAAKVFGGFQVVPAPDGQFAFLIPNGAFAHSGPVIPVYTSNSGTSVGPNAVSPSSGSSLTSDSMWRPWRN

Flag-Strep (FS)-Hey1 = biological target: T3, Flag-Strep (FS)-Hey1 (UniProt Q9WV93); assay: as above
T3 sequence: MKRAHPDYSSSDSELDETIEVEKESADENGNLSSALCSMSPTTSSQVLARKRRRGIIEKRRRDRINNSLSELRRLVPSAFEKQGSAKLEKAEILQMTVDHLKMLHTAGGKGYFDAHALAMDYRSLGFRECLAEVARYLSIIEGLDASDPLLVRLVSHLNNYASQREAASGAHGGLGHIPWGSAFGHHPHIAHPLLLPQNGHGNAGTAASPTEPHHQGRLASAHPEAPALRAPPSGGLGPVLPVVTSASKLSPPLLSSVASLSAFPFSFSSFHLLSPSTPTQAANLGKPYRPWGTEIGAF

Flag-Strep (FS)-Hey2 = biological target: T4, Flag-Strep (FS)-Hey2 (UniProt Q9QUS4); assay: as above
T4 sequence: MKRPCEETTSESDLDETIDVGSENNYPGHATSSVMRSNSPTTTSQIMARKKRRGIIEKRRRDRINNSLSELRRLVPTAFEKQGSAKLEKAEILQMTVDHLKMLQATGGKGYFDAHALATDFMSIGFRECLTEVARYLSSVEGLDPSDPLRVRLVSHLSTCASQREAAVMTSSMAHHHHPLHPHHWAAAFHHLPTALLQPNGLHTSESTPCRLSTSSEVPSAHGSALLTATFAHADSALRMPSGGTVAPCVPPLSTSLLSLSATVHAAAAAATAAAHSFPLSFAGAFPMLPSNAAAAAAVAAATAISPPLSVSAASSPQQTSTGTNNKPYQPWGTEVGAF

Flag-FBXO45 (human) [1] = biological target: T5, Flag-FBXO45 (human) (UniProt P0C2W1); assay: co-IP; HEK293T cells transfected with Flag-FBXO45 and HA-Hey1 alone or together; immunoprecipitated with Flag or HA antibodies
T5 sequence: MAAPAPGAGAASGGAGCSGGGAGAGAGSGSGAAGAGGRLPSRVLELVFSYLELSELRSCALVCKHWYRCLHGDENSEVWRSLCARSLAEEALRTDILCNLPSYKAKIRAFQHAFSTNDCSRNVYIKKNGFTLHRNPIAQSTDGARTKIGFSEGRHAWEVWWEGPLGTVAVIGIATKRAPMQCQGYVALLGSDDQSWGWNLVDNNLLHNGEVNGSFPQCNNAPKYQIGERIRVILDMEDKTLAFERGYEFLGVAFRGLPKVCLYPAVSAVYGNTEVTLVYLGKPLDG

Flag-FBXO45 (human) [2] = biological target: T5, Flag-FBXO45 (human); assay: co-IP; HEK293T cells co-transfected with a Flag-tagged and an eGFP-fused protein; anti-Flag M2 affinity gel, 4°C overnight; 20 mM Tris pH 7.8, 150 mM NaCl, 10% glycerol, 0.3% Triton-X100; Western blot with anti-Flag and anti-GFP

binding (Flag-HeyL): binds
binding (Flag-Strep (FS)-Hes1): no binding
binding (Flag-Strep (FS)-Hey1): binds
binding (Flag-Strep (FS)-Hey2): binds
B1: eGFP-FBXO45 (protein, UniProt P0C2W1 1-286)
chain: T5 sequence

binding (Flag-Strep (FS)-Hey1): binds
B2: eGFP-FBXO45ΔF (domain or fragment, UniProt P0C2W1 83-286)
chain: CARSLAEEALRTDILCNLPSYKAKIRAFQHAFSTNDCSRNVYIKKNGFTLHRNPIAQSTDGARTKIGFSEGRHAWEVWWEGPLGTVAVIGIATKRAPMQCQGYVALLGSDDQSWGWNLVDNNLLHNGEVNGSFPQCNNAPKYQIGERIRVILDMEDKTLAFERGYEFLGVAFRGLPKVCLYPAVSAVYGNTEVTLVYLGKPLDG

binding (Flag-FBXO45 (human) [1]): binds
B3: HA-Hey1 (protein, UniProt Q9WV93 1-299)
chain: T3 sequence

binding (Flag-FBXO45 (human) [2]): binds
B4: eGFP-Hey1 1–286 (domain or fragment, UniProt Q9WV93 1-286)
chain: MKRAHPDYSSSDSELDETIEVEKESADENGNLSSALCSMSPTTSSQVLARKRRRGIIEKRRRDRINNSLSELRRLVPSAFEKQGSAKLEKAEILQMTVDHLKMLHTAGGKGYFDAHALAMDYRSLGFRECLAEVARYLSIIEGLDASDPLLVRLVSHLNNYASQREAASGAHGGLGHIPWGSAFGHHPHIAHPLLLPQNGHGNAGTAASPTEPHHQGRLASAHPEAPALRAPPSGGLGPVLPVVTSASKLSPPLLSSVASLSAFPFSFSSFHLLSPSTPTQAANLG

binding (Flag-FBXO45 (human) [2]): no binding
B5: eGFP-Hey1 ΔbHLH-O (domain or fragment, UniProt Q9WV93 159-299)
chain: NNYASQREAASGAHGGLGHIPWGSAFGHHPHIAHPLLLPQNGHGNAGTAASPTEPHHQGRLASAHPEAPALRAPPSGGLGPVLPVVTSASKLSPPLLSSVASLSAFPFSFSSFHLLSPSTPTQAANLGKPYRPWGTEIGAF
